This is one part of the list. Rule as the data show it: active = 3.2 or more and inactive = the rest. Only a few entries rise above the background.
molecular target: SHP2 C-SH2 domain E139D; test: enrichment score (SH2-bound / input frequency) (ratio); bacterial display of known human phosphotyrosine sites (pTyr-Var adds point mutants) read by sequencing; higher = stronger binding; tyrosines were phosphorylated by kinases first; settings: peptide library: Human pTyr
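Also: displayed peptides selected on beads carrying the immobilized SH2 domain, with library peptides lacking any tyrosine serving as negative controls.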

Enrichment score, inactive:
TDSSPPPYSSITVEV [NFIP2_HUMAN_151] 1.35
TTSDTEVYGEFAPVP [NFIP2_HUMAN_167_YA] 1.25
TEVAGEFYPVPPPAS [NFIP2_HUMAN_171_YA] 0.495
FYPVPPPYSVATSLP [NFIP2_HUMAN_177] 0.583
ACLSPGAYSPDAGLP [ANR11_HUMAN_1851_YA] 0.898
FTEDELPYDDCVFGG [NFKBIA_HUMAN_305] 1
AKEEIAEYRRQLQSK [NFM_HUMAN_320] 0.809
IEQIGLLYQEYRDKS [NGEF_HUMAN_179] 1.01
SDSDMEDYSPPPSLS [NIPBL_HUMAN_1159] 0.746
DSIELGDYTKAFLIN [ANS1B_HUMAN_901] 0.685
EENLFSDYISEVERT [NMDE2_HUMAN_962] 0.866
VVGGCQEYTGAPYFA [NNRD_HUMAN_85] 1.13
ERFLFPEYILDPEPQ [NOA1_HUMAN_77] 1.14
IEFVNQYYGSFKEAK [NOS2_HUMAN_151] 1.14
IENEEQEYVQTVKSS [ANXA1_HUMAN_21] 1.1
GNQFRANYFLQPELM [NPHP1_HUMAN_349] 0.786
FDLSEQTYDFLGEMR [NPHP1_HUMAN_721] 0.59
EDDDANSYENVLICK [NTAL_HUMAN_136] 1.1

molecular target: SHP2 C-SH2 domain wild-type; test: as above; settings: peptide library: Human pTyr

Enrichment score, inactive:
TDSSPPPYSSITVEV [NFIP2_HUMAN_151] 0.896
TTSDTEVYGEFAPVP [NFIP2_HUMAN_167_YA] 0.62
TEVAGEFYPVPPPAS [NFIP2_HUMAN_171_YA] 0.434
FYPVPPPYSVATSLP [NFIP2_HUMAN_177] 0.533
ACLSPGAYSPDAGLP [ANR11_HUMAN_1851_YA] 1.03
FTEDELPYDDCVFGG [NFKBIA_HUMAN_305] 0.867
AKEEIAEYRRQLQSK [NFM_HUMAN_320] 0.875
IEQIGLLYQEYRDKS [NGEF_HUMAN_179] 0.904
SDSDMEDYSPPPSLS [NIPBL_HUMAN_1159] 0.69
DSIELGDYTKAFLIN [ANS1B_HUMAN_901] 0.554
EENLFSDYISEVERT [NMDE2_HUMAN_962] 0.959
VVGGCQEYTGAPYFA [NNRD_HUMAN_85] 1.19
ERFLFPEYILDPEPQ [NOA1_HUMAN_77] 0.847
IEFVNQYYGSFKEAK [NOS2_HUMAN_151] 0.954
IENEEQEYVQTVKSS [ANXA1_HUMAN_21] 0.979
GNQFRANYFLQPELM [NPHP1_HUMAN_349] 0.739
FDLSEQTYDFLGEMR [NPHP1_HUMAN_721] 0.528
EDDDANSYENVLICK [NTAL_HUMAN_136] 0.827

molecular target: SHP2 N-SH2 domain L43F; test: as above; settings: peptide library: Human pTyr

Enrichment score, inactive:
TDSSPPPYSSITVEV [NFIP2_HUMAN_151] 0.798
TTSDTEVYGEFAPVP [NFIP2_HUMAN_167_YA] 0.616
TEVAGEFYPVPPPAS [NFIP2_HUMAN_171_YA] 0.64
FYPVPPPYSVATSLP [NFIP2_HUMAN_177] 0.648
ACLSPGAYSPDAGLP [ANR11_HUMAN_1851_YA] 0.786
FTEDELPYDDCVFGG [NFKBIA_HUMAN_305] 0.857
AKEEIAEYRRQLQSK [NFM_HUMAN_320] 0.877
IEQIGLLYQEYRDKS [NGEF_HUMAN_179] 0.806
SDSDMEDYSPPPSLS [NIPBL_HUMAN_1159] 0.9
DSIELGDYTKAFLIN [ANS1B_HUMAN_901] 0.596
EENLFSDYISEVERT [NMDE2_HUMAN_962] 0.786
VVGGCQEYTGAPYFA [NNRD_HUMAN_85] 1.03
ERFLFPEYILDPEPQ [NOA1_HUMAN_77] 1.13
IEFVNQYYGSFKEAK [NOS2_HUMAN_151] 1.09
IENEEQEYVQTVKSS [ANXA1_HUMAN_21] 0.845
GNQFRANYFLQPELM [NPHP1_HUMAN_349] 0.707
FDLSEQTYDFLGEMR [NPHP1_HUMAN_721] 0.611
EDDDANSYENVLICK [NTAL_HUMAN_136] 1.14

molecular target: SHP2 N-SH2 domain T42A; test: as above; settings: peptide library: Human pTyr

Enrichment score, inactive:
TDSSPPPYSSITVEV [NFIP2_HUMAN_151] 0.813
TTSDTEVYGEFAPVP [NFIP2_HUMAN_167_YA] 0.698
TEVAGEFYPVPPPAS [NFIP2_HUMAN_171_YA] 0.562
FYPVPPPYSVATSLP [NFIP2_HUMAN_177] 0.651
ACLSPGAYSPDAGLP [ANR11_HUMAN_1851_YA] 0.956
FTEDELPYDDCVFGG [NFKBIA_HUMAN_305] 1.12
AKEEIAEYRRQLQSK [NFM_HUMAN_320] 0.757
IEQIGLLYQEYRDKS [NGEF_HUMAN_179] 1.07
SDSDMEDYSPPPSLS [NIPBL_HUMAN_1159] 0.896
DSIELGDYTKAFLIN [ANS1B_HUMAN_901] 0.628
EENLFSDYISEVERT [NMDE2_HUMAN_962] 0.922
VVGGCQEYTGAPYFA [NNRD_HUMAN_85] 1.16
ERFLFPEYILDPEPQ [NOA1_HUMAN_77] 0.683
IEFVNQYYGSFKEAK [NOS2_HUMAN_151] 0.992
IENEEQEYVQTVKSS [ANXA1_HUMAN_21] 0.84
GNQFRANYFLQPELM [NPHP1_HUMAN_349] 0.746
FDLSEQTYDFLGEMR [NPHP1_HUMAN_721] 0.921
EDDDANSYENVLICK [NTAL_HUMAN_136] 1.02

molecular target: SHP2 N-SH2 domain T52S; test: as above; settings: peptide library: Human pTyr

Enrichment score, inactive:
TDSSPPPYSSITVEV [NFIP2_HUMAN_151] 0.725
TTSDTEVYGEFAPVP [NFIP2_HUMAN_167_YA] 0.705
TEVAGEFYPVPPPAS [NFIP2_HUMAN_171_YA] 0.488
FYPVPPPYSVATSLP [NFIP2_HUMAN_177] 0.65
ACLSPGAYSPDAGLP [ANR11_HUMAN_1851_YA] 0.896
FTEDELPYDDCVFGG [NFKBIA_HUMAN_305] 1.04
AKEEIAEYRRQLQSK [NFM_HUMAN_320] 0.971
IEQIGLLYQEYRDKS [NGEF_HUMAN_179] 1.1
SDSDMEDYSPPPSLS [NIPBL_HUMAN_1159] 0.772
DSIELGDYTKAFLIN [ANS1B_HUMAN_901] 0.698
EENLFSDYISEVERT [NMDE2_HUMAN_962] 0.815
VVGGCQEYTGAPYFA [NNRD_HUMAN_85] 1.15
ERFLFPEYILDPEPQ [NOA1_HUMAN_77] 1.11
IEFVNQYYGSFKEAK [NOS2_HUMAN_151] 1.04
IENEEQEYVQTVKSS [ANXA1_HUMAN_21] 1.01
GNQFRANYFLQPELM [NPHP1_HUMAN_349] 0.884
FDLSEQTYDFLGEMR [NPHP1_HUMAN_721] 0.719
EDDDANSYENVLICK [NTAL_HUMAN_136] 0.977

molecular target: SHP2 N-SH2 domain wild-type; test: as above; settings: peptide library: Human pTyr

Enrichment score, inactive:
TDSSPPPYSSITVEV [NFIP2_HUMAN_151] 0.954
TTSDTEVYGEFAPVP [NFIP2_HUMAN_167_YA] 0.634
TEVAGEFYPVPPPAS [NFIP2_HUMAN_171_YA] 0.352
FYPVPPPYSVATSLP [NFIP2_HUMAN_177] 0.764
ACLSPGAYSPDAGLP [ANR11_HUMAN_1851_YA] 0.941
FTEDELPYDDCVFGG [NFKBIA_HUMAN_305] 1.14
AKEEIAEYRRQLQSK [NFM_HUMAN_320] 0.849
IEQIGLLYQEYRDKS [NGEF_HUMAN_179] 0.917
SDSDMEDYSPPPSLS [NIPBL_HUMAN_1159] 0.779
DSIELGDYTKAFLIN [ANS1B_HUMAN_901] 0.919
EENLFSDYISEVERT [NMDE2_HUMAN_962] 1.27
VVGGCQEYTGAPYFA [NNRD_HUMAN_85] 1.24
ERFLFPEYILDPEPQ [NOA1_HUMAN_77] 1.05
IEFVNQYYGSFKEAK [NOS2_HUMAN_151] 1.2
IENEEQEYVQTVKSS [ANXA1_HUMAN_21] 1.02
GNQFRANYFLQPELM [NPHP1_HUMAN_349] 0.776
FDLSEQTYDFLGEMR [NPHP1_HUMAN_721] 0.419
EDDDANSYENVLICK [NTAL_HUMAN_136] 1.16
